This series relates to ATP. Nature of the series: switch fluorescence ratio, 500 uM ATP over buffer (Cy3 cluster intensity, sum of 5 cycles each) (fold (ratio)); higher = stronger signal-on switching upon ATP binding; sequences stand for … in TCGTCGGCAGCGTCAGATGTGTATAAGAGACAGTTTTTTTTTTTTTTTTTTTTTTTTT…TC. Conditions: aptamer strand: ATP DNA aptamer (quencher-CACCTGGGGGAGTATTGCGGAGGAAGG + anchor), 100 nM annealed; ATP concentration: 500 uM; one replicate. The procedure, abridged: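 The quencher-labelled ATP aptamer, at 100 nM, was annealed to Cy3-labelled switching-strand clusters on a modified Illumina MiSeq flow-cell. The clusters were imaged in selection buffer, then after 15 min with 500 uM ATP at 22 °C, and this buffer/ATP cycle ran five times with NaOH stripping and re-annealing between runs. Per-cluster fluorescence ratios, summed target-cycle over summed buffer-cycle Cy3 intensity, were averaged per switch-domain sequence. Clusters outside 100-1000 RFU were excluded.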

Values marked as one replicate rest on one cluster of the flow cell; about a third of the high ones do not repeat.
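Further: ATP exposure 15 min at 22 °C before imaging.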

As to GCTAGCACGT, the switch fluorescence ratio was determined as 1.02.

In the case of CCACTGTAGG, the switch fluorescence ratio is 1.09.

For AGTTCACTAA, the switch fluorescence ratio is 0.992. As for CCATACTGCC, the switch fluorescence ratio stood at 1.4. The result for CTTTCTGTGG reads 0.991. Take CTCCTTTGAC: the switch fluorescence ratio was found to be 1.78. With GAGCTGCTAC, the switch fluorescence ratio worked out at 1.25.

Take CCGAGCGTCG: the switch fluorescence ratio stood at 1.31. For TACCGGTTCA, the switch fluorescence ratio is 0.97. Regarding GGGGTGCCGT, the switch fluorescence ratio came to 0.964. In the case of GGAAGACATA it was 1; in that of TTATAACGAC, 1.09; in that of AAAAAGCATT, 1.21. As to GAAAGAGTCT, the switch fluorescence ratio turned out to be 1.1. In the case of ATAATATTGC it was 0.986; in that of TTCCCACGT, 1.03. As for CGGAAGCCTG, the switch fluorescence ratio is 1.04. In the case of TTTGCAAGCT it was 1.04; in that of CGGGGTTAAA, 0.998; in that of TACCAGGTTA, 1.09. In the case of AGGTTTTGGC, the switch fluorescence ratio is 0.961. In the case of TGTTCATGT it was 1.03; in that of GCCGAGTCGT, 1.03; in that of CGTCTGAAGC, 0.955. CTCGTCTTTG: the switch fluorescence ratio was found to be 1.01.

With AACTTCCACC, the switch fluorescence ratio came out at 1.65.

As to CTCAGTGTGA, the switch fluorescence ratio was 1.05. The result for GAAGGCCGGA reads 1.05; that for TACCATTTG, 1.01. The result for ATTTCCTC reads 1.09; that for TGGAGTGGTT, 1.02. For the sequence CTAGGTCTAA, the switch fluorescence ratio was 1.01. In the case of CCGGTTGCA it was 1.12; in that of TAACGCCGGC, 0.941.

For GCCTCCGGAT, the switch fluorescence ratio was 2.28. The result for GTCAAGTTTT reads 0.998; that for ATCGGTAAGT, 1.01; that for ATTACCCCCT, 1.6.

As for AAAGGCGTTG, the switch fluorescence ratio stood at 0.966. As for GTGCTGGGGT, the switch fluorescence ratio amounted to 1.03. With CCGCTGGTCG, the switch fluorescence ratio came out at 1.03. Regarding AGTACCCAGA, the switch fluorescence ratio came out at 1.03.

Consider CGGGGTCACC, for which the switch fluorescence ratio stood at 1.01. Turning to GGGGTATGAA, the switch fluorescence ratio was 0.993. In the case of GACTGGGGCG it was 1.2. In the case of TCACTCCGGA it was 1.67; in that of AAGTTACAAT, 1.04; in that of GAAAACTTCG, 1.3. In the case of TGGTAAATAG it was 0.975; in that of GATGATACTC, 1.15; in that of TCAATGTCGA, 0.982. In the case of AGGTCGGTC, the switch fluorescence ratio was determined as 0.962. The result for GATACTTAAG reads 1. In the case of GGGTTATGAC, the switch fluorescence ratio came out at 1.05. On to CCGGGTGGCT, for which the switch fluorescence ratio turned out to be 1.14. In the case of AGTCAAGGGG it was 0.955. In the case of CAAGTGTCTG it was 0.976; in that of ACTACCATCA, 1.15. In the case of CTTATTATGC it was 0.996; in that of CCGAAGGCGC, 0.992; in that of AGGAGTGGTT, 0.977. For AAAGAGATTT, the switch fluorescence ratio came out at 0.971. For the sequence CAAGCTCACG, the switch fluorescence ratio is 1.02. With AATAAGCATT, the switch fluorescence ratio turned out to be 1.07.

For ACGAGTAAG, the switch fluorescence ratio was 0.987. The result for GCGGAAAGAG reads 0.983. In the case of ACGTGTGTAT it was 1.03; in that of CTTGTAAAAA, 1.08; in that of ATTTTCCGAG, 1.16. The result for AGTTGCATAT reads 0.999. For CAAGGTTGTC, the switch fluorescence ratio was found to be 1.08. The result for CGTGACGGGT reads 0.964; that for CAATTAGGTG, 1.21; that for TCCATTATAT, 1.04.

As for TGCACTGAGT, the switch fluorescence ratio was found to be 1.04.

As to GGGTTAGAGC, the switch fluorescence ratio was determined as 0.996. In the case of GCCGCGCCTG it was 1.02; in that of TAGGTTCAGC, 0.991.

The values are drawn from the supplement of paper PMC10126150.
